{
  "source": "PubChem BioAssay AID624296",
  "about": "(National Center for Advancing Translational Sciences (NCATS), 2012)",
  "note": "Screen size: about 350,000 compounds; about 9,900 (2.8%) were called active. The inconclusive results got no clear call from the source; some entries with a clear call stand among them for comparison. Calls come from the whole dose curve; as a rule, active = well fitted activation curve with a large enough effect; inconclusive = small, poorly fitted or top-dose-only effect; inactive = no such curve, though single readings can be large or run the other way. Potencies of inconclusive entries are left out as doubtful fits. Potency is the fitted concentration of half-maximal effect; tags give direction and shape of the fitted curve.",
  "data": [
    {"assay": "A quantitative high throughput screen for small molecules that induce DNA re-replication in MCF 10a normal breast cells; note: nearly all actives have a fitted effect of over 50% in size.", "conditions": "MCF 10A DNA re-replication, Hoechst nuclear intensity, 48 h; series mostly up to 46.1 µM", "values": [
      {"smiles": "CCc1nnc(NS(=O)(=O)c2ccc(NC(=S)NC(=O)/C=C/c3ccc(F)cc3)cc2)s1", "Potency": "inconclusive [activator, partial curve, poor fit]"},
      {"smiles": "CCOc1ccccc1C1NC(=O)c2ccccc2N1", "note": "(stereo unspecified)", "Potency": "inconclusive [activator, full curve]"},
      {"smiles": "COC(C[C@@H](O)C[C@@H](O)[C@H](C)OCc1ccccc1)OC", "Potency": "inconclusive [activator, partial curve, poor fit]"},
      {"smiles": "Cc1cc(N2CCN(C)CC2)nc2ccc(NC(=O)CCC(=O)N3CCN(c4ccc([N+](=O)[O-])cc4)CC3)cc12", "Potency": "active: 18.4 µM"},
      {"smiles": "CCOC(=O)c1cc(S(=O)(=O)Nc2ccc(F)cc2F)cn1C", "Potency": "inactive"},
      {"smiles": "COc1ccc(C(=O)Nc2ccc(Cn3ccnc3)cc2)cc1OC", "Potency": "inconclusive [activator, partial curve, poor fit]"},
      {"smiles": "S=c1ncc2[nH]c(=S)[nH]c2[nH]1", "Potency": "inconclusive [activator, full curve, poor fit]"},
      {"smiles": "CC(C)c1ccc(/C=C/C(=O)CCC(=O)O)cc1", "Potency": "inconclusive [activator, single point]"},
      {"smiles": "COc1ccc(S(=O)(=O)N2CCCOC2CNC(=O)C(=O)NCCc2ccco2)cc1C", "note": "(stereo unspecified)", "Potency": "inconclusive [activator, single point]"},
      {"smiles": "CC1(C2CC2)NC(=O)N(CC(=O)Nc2ccc(C(F)(F)F)cc2)C1=O", "note": "(stereo unspecified)", "Potency": "inactive"},
      {"smiles": "Cc1ccc(NC(=O)CCN2CCN(C/C=C/c3ccccc3)CC2)cc1", "Potency": "inconclusive [activator, single point]"},
      {"smiles": "Cc1cc(N2CCCC2)nc(SCC(=O)c2ccccc2)n1", "Potency": "inconclusive [activator, partial curve, poor fit]"},
      {"smiles": "C(#Cc1ccccc1)C[N+]1(CC#Cc2cccc3ccccc23)CCCC1", "Potency": "inconclusive [activator, partial curve, poor fit]"},
      {"smiles": "CC1=NN(C(=O)Cc2ccccc2)C(O)(c2ccccc2)C1", "note": "(stereo unspecified)", "Potency": "inconclusive [activator, partial curve, poor fit]"},
      {"smiles": "COc1ccccc1-c1cc(C(F)(F)F)nc(N2CCOCC2)n1", "Potency": "inconclusive [activator, partial curve, poor fit]"},
      {"smiles": "O=C(CCNC(=O)c1ccccc1)NC1CCCc2ccccc21", "note": "(stereo unspecified)", "Potency": "inconclusive [activator, partial curve, poor fit]"},
      {"smiles": "C=C[C@]1(C)C=C2CCC3[C@](C)(CCC[C@@]3(C)C(=O)O)C2CC1", "note": "(stereo partly specified)", "Potency": "inconclusive [activator, partial curve]"},
      {"smiles": "CCn1c2ccccc2c2cc(NC(=O)C(C)OC(=O)c3ccc(NC(=O)CC#N)cc3)ccc21", "note": "(stereo unspecified)", "Potency": "inconclusive [activator, single point]"},
      {"smiles": "C/C(=N\\NC(=O)c1ccc(NS(=O)(=O)c2cccs2)cc1)c1ccc(O)cc1O", "Potency": "inconclusive [activator, single point]"},
      {"smiles": "Nc1c(N(Cc2ccccc2)C(=O)COc2ccc(F)cc2Cl)c(=O)[nH]c(=O)n1Cc1ccccc1", "Potency": "inconclusive [activator, partial curve, poor fit]"},
      {"smiles": "Cc1ccc(Cn2c(C(C)Nc3nc(-c4ccc(Cl)cc4)cs3)nc3cc(C(=O)NCCCO)ccc32)cc1", "note": "(stereo unspecified)", "Potency": "inconclusive [activator, single point]"},
      {"smiles": "COCCN(CCOC)c1ncnc2c1cnn2-c1ccc(Cl)cc1", "Potency": "inconclusive [activator, partial curve, poor fit]"},
      {"smiles": "Cc1cc(NC(=O)c2cc(-c3ccncc3)nc3c(C)cccc23)no1", "Potency": "inconclusive [activator, full curve]"},
      {"smiles": "O=C(c1sc2ccccc2c1Cl)N1CCN(c2ccccc2F)CC1", "Potency": "inconclusive [activator, single point]"},
      {"smiles": "O=C1C2C3C=CC(CNS(=O)(=O)c4ccccc4[N+](=O)[O-])(O3)C2C(=O)N1c1ccccc1", "note": "(stereo unspecified)", "Potency": "active: 20.6 µM"},
      {"smiles": "O=S(=O)(NCC(c1ccco1)N1CCN(c2ccc(F)cc2)CC1)c1ccc2c(c1)OCCO2", "note": "(stereo unspecified)", "Potency": "inconclusive [activator, single point]"},
      {"smiles": "OC(CNc1ncnc2sccc12)c1ccccc1", "note": "(stereo unspecified)", "Potency": "inconclusive [activator, partial curve, poor fit]"},
      {"smiles": "COc1ccc(CCN(Cc2ccccn2)C(=S)Nc2ccc(C)cc2)cc1OC", "Potency": "inactive"},
      {"smiles": "COc1cc(NS(=O)(=O)c2ccc(NC(=O)CCC(=O)O)cc2)nc(OC)n1", "Potency": "inconclusive [activator, full curve, poor fit]"},
      {"smiles": "Cc1cccc(C)c1Nc1nnc(SCc2nc3ccccc3c(=O)[nH]2)s1", "Potency": "inconclusive [activator, single point]"},
      {"smiles": "CCc1nnc(NC(=O)CCS(=O)(=O)Cc2ccccc2)s1", "Potency": "inconclusive [activator, single point]"},
      {"smiles": "O=C(Nc1ccccc1N1CCOCC1)c1ccc2ccccc2c1", "Potency": "inactive"},
      {"smiles": "Oc1ccc(Br)cc1/C=N/Nc1ncc(-c2ccccc2)cn1", "Potency": "inconclusive [activator, partial curve, poor fit]"},
      {"smiles": "O=S(=O)(c1ccc(Br)cc1)c1cnc2ccccc2n1", "Potency": "inconclusive [activator, single point]"},
      {"smiles": "Cc1ccccc1C(=O)Nc1nnc(SCC(=O)NC2CC2)s1", "Potency": "inactive"},
      {"smiles": "COc1ccc(CCNC(=O)CN(C)S(=O)(=O)c2ccc(OC)cc2)cc1", "Potency": "inconclusive [activator, single point]"},
      {"smiles": "Cc1ccccc1Nc1nc(CSc2nnnn2-c2ccccc2)cs1", "Potency": "inconclusive [activator, partial curve, poor fit]"},
      {"smiles": "Nn1cc(-c2ccccc2)nc1SCC(=O)NCC(F)(F)F", "Potency": "inactive"},
      {"smiles": "COc1ccc(/C=C/C(=O)c2ccccn2)cc1", "Potency": "inconclusive [activator, single point]"},
      {"smiles": "COc1ccc(N2CCN(CCC(=O)c3ccc4ccccc4c3)CC2)cc1", "Potency": "active: 10.3 µM"},
      {"smiles": "Cc1cc(C)cc(N(CC(=O)NCc2cccnc2)S(C)(=O)=O)c1", "Potency": "inconclusive [activator, single point]"},
      {"smiles": "CN1CCC(N(C)C(=O)c2cc(S(=O)(=O)N(C)c3ccccc3)ccc2Cl)CC1", "Potency": "inactive"},
      {"smiles": "COc1ccc(C(=S)N2CCN(c3ccccc3C)CC2)cc1OC", "Potency": "inconclusive [activator, single point]"},
      {"smiles": "CCN(CC)CC(=O)Nc1ccc(-c2ccc(NC(=O)CN(CC)CC)c(OC)c2)cc1OC", "Potency": "inconclusive [activator, single point]"},
      {"smiles": "CN1CCN(CCCNC(=O)c2cc3c(-c4ccc(Cl)cc4)nn(C)c3s2)CC1", "Potency": "inconclusive [activator, partial curve]"},
      {"smiles": "O=S(=O)(NCC1CCCO1)c1ccc(-c2ccc(Cl)cc2)cc1", "note": "(stereo unspecified)", "Potency": "inactive"},
      {"smiles": "COCCNC(=O)C(c1ccc(Cl)cc1)N(C(=O)Cn1nnc2ccccc21)c1cccnc1", "note": "(stereo unspecified)", "Potency": "inconclusive [activator, single point]"},
      {"smiles": "CCCC1CC(C)(c2csc(Nc3ccc(OCC)cc3)n2)OC1=O", "note": "(stereo unspecified)", "Potency": "inconclusive [activator, single point]"},
      {"smiles": "CC(C)NC(=O)CSc1nnc(-c2ccncc2)n1-c1ccccc1", "Potency": "inconclusive [activator, single point]"},
      {"smiles": "CN(CCCC(=O)NC1CC(C)(C)NC(C)(C)C1)S(=O)(=O)c1ccc([N+](=O)[O-])cc1", "Potency": "inconclusive [activator, single point]"},
      {"smiles": "O=C(CN1C(=O)/C(=C\\c2cccc(Br)c2)Oc2ccccc21)NCC1CCCO1", "note": "(stereo unspecified)", "Potency": "inconclusive [activator, full curve, poor fit]"},
      {"smiles": "Cc1ccc(C(=O)c2sc3nc4c(cc3c2N)CCC4)cc1", "Potency": "inactive"},
      {"smiles": "COC(=O)Nc1ccc2c(c1)N(C(=O)CCCl)c1ccccc1S2", "Potency": "inconclusive [activator, single point]"},
      {"smiles": "COc1ccc(-c2nc3n(c2C)CCC3)cc1", "Potency": "inconclusive [activator, full curve, poor fit]"},
      {"smiles": "Cc1ccc2cc(CN(Cc3ccco3)C(=O)c3ccco3)c3nnnn3c2c1", "Potency": "inactive"},
      {"smiles": "Cc1ccc(S(=O)(=O)N(OCc2ccccc2)C(C)C(=O)O)cc1", "note": "(stereo unspecified)", "Potency": "inactive"},
      {"smiles": "Cc1ccc(/C(N)=N/OC(=O)C(C)c2ccc([N+](=O)[O-])cc2)cc1", "note": "(stereo unspecified)", "Potency": "inactive"},
      {"smiles": "Cc1ccc(C(=O)n2c3ccccc3c3ccccc32)cc1", "Potency": "inconclusive [activator, partial curve, poor fit]"},
      {"smiles": "Cc1nn(C)c(-c2n[nH]c(=S)n2-c2ccccc2)c1Cl", "Potency": "inactive"},
      {"smiles": "COc1cccc(C(C(=O)NC2CCCCC2)N(C(=O)CNC(=O)c2ccco2)c2cccnc2)c1", "note": "(stereo unspecified)", "Potency": "inactive"},
      {"smiles": "Cc1nc(-c2ccc(NS(=O)(=O)c3ccccc3)cc2)cs1", "Potency": "inconclusive [activator, partial curve, poor fit]"},
      {"smiles": "COc1cc(NC(=O)c2cc(-c3ccccc3Cl)on2)cc(OC)c1OC", "Potency": "active: 20.6 µM"},
      {"smiles": "CC(Oc1ccc(C(=O)c2ccccc2)cc1)C(=O)N1CCOCC1", "note": "(stereo unspecified)", "Potency": "inactive"},
      {"smiles": "CCOc1ccc(-c2cc(C(=O)NCCCn3ccnc3)c3ccccc3n2)cc1", "Potency": "active: 0.58 µM"},
      {"smiles": "COc1ccc(C)c2sc(N(CCCN(C)C)C(=O)CS(=O)(=O)c3ccc(F)cc3)nc12", "Potency": "active: 3.66 µM"},
      {"smiles": "C=C1CC(Cn2cc(Br)c(=O)[nH]c2=O)(c2ccc(-c3ccccc3)cc2)OC1=O", "note": "(stereo unspecified)", "Potency": "inconclusive [activator, full curve, poor fit]"}
    ]}
  ]
}
